# Results as given in the supplement of paper PMC4604168 (melanoma cell lines).
# The other results are listed elsewhere or left out. Most values come without repeats; read them as rough.
# How the values were obtained:
# Experiment in all cases: cell count relative to DMSO control; melanoma cells; higher = more viable cells
# Details in all cases: library dose: low library concentration; 72 h
# [1] = tested on: MZ2-MEL
# [2] = tested on: MeWo
# [3] = tested on: RPMI7951
# [4] = tested on: RVH-421
# [5] = tested on: SkMel28
# [6] = tested on: SkMel2
# [7] = tested on: SkMel30
# [8] = tested on: SkMel5
# [9] = tested on: UACC257
# [10] = tested on: UACC62
# 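Note: cell number obtained by counting DAPI-stained nuclei in high-throughput microscope images with image analysis software, screen run in 1,536-well plates.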
Structure (SMILES),cell count [1] [%],cell count [2] [%],cell count [3] [%],cell count [4] [%],cell count [5] [%],cell count [6] [%],cell count [7] [%],cell count [8] [%],cell count [9] [%],cell count [10] [%]
"OCc1c[nH]c2ccccc12 [Indole-3-carbinol] + COc1cc2ncnc(Nc3ccc(Oc4ccccc4)cc3)c2cc1OC [SrcI1] (first compound 0.8 µM, partner dose 2 µM)",99.1,97,95.9,120,81.1,112,102,104,101,97.6
"OCc1c[nH]c2ccccc12 [Indole-3-carbinol] + O=C(O)C(=O)Nc1sc2c(c1C(=O)O)CCNC2 [TCS401] (first compound 0.8 µM, partner dose 1.66667 µM)",99.2,95.8,112,84.3,125,95.2,85.4,86,95.9,86.1
"Cn1c(Nc2ccc(C(F)(F)F)cc2)nc2cc(Oc3ccnc(-c4ncc(C(F)(F)F)[nH]4)c3)ccc21 + O=C(CCCCCCC(=O)Nc1ccccc1)NO [vorinostat] (first compound 0.08 µM, partner dose 0.08 µM)",65.6,65.5,55.1,73.2,55.9,66.2,49.6,70.7,46.4,48.3
"COCC[n+]1c2c(n(Cc3cnccn3)c1C)C(=O)c1ccccc1C2=O + CC1(C)NC(=O)N(c2ccc([N+](=O)[O-])c(C(F)(F)F)c2)C1=O [nilutamide] (first compound 0.0004 µM, partner dose 1 µM)",45.8,93.7,72.5,119,88.4,74.3,85.3,50.2,89.1,95.9
"O=C(CCCCCCC(=O)Nc1ccccc1)NO [vorinostat] + CN(NC(=O)CC(=O)NN(C)C(=S)c1ccccc1)C(=S)c1ccccc1 [STA4783] (first compound 0.08 µM, partner dose 0.006 µM)",102,92.7,93.5,101,104,80.9,78.5,77.5,130,82
"OCc1c[nH]c2ccccc12 [Indole-3-carbinol] + CC(C)(C)c1cnc(CSc2cnc(NC(=O)C3CCNCC3)s2)o1 [SNS-032] (first compound 0.8 µM, partner dose 0.01 µM)",101,102,88,108,73.8,97.3,109,96.5,97.5,87.3
"Cn1c(Nc2ccc(C(F)(F)F)cc2)nc2cc(Oc3ccnc(-c4ncc(C(F)(F)F)[nH]4)c3)ccc21 + CN(C)S(=O)(=O)c1ccc2c(c1)/C(=C/c1cc3c([nH]1)CCCC3)C(=O)N2 [SU6656] (first compound 0.08 µM, partner dose 0.4 µM)",70.6,51,60.1,66,49.6,76.6,41.2,65.1,54.7,47.6
"OCc1c[nH]c2ccccc12 [Indole-3-carbinol] + COc1ccc(COc2ccc(Cc3cnc(N)nc3N)cc2OC)cc1 [GW2580] (first compound 0.8 µM, partner dose 1 µM)",95.5,103,99.4,91.2,106,97.1,101,98.9,112,112
"C#Cc1cccc(Nc2ncnc3cc(OCCOC)c(OCCOC)cc23)c1 [erlotinib] + C[C@@H]1CCN(C(=O)CC#N)C[C@@H]1N(C)c1ncnc2[nH]ccc12 [CP690550] (first compound 0.8 µM, partner dose 1 µM)",91,93.2,90.1,95.7,110,102,90.8,109,93.8,94.5
"Clc1ccc(Nc2nnc(Cc3ccncc3)c3ccccc23)cc1 [vatalanib] + COc1cc2ncnc(Nc3ccc(Oc4ccccc4)cc3)c2cc1OC [SrcI1] (first compound 2 µM, partner dose 2 µM)",90.7,84,109,107,72.3,112,99.7,93.7,82.1,101
"OCc1c[nH]c2ccccc12 [Indole-3-carbinol] + Cn1cc(/C=C2\C(=O)Nc3cccnc32)c2ccccc21 [GW441756] (first compound 0.8 µM, partner dose 0.4 µM)",98.9,105,97.3,105,81.3,113,84.6,85.6,79.6,90.3
"OCc1c[nH]c2ccccc12 [Indole-3-carbinol] + COc1cc(N2CCC(N3CCN(C)CC3)CC2)ccc1Nc1ncc(Cl)c(Nc2ccccc2S(=O)(=O)C(C)C)n1 [NVP-TAE684] (first compound 0.8 µM, partner dose 0.08 µM)",93.9,89.9,82.2,101,85.5,88.9,86.1,89.8,87.2,99.8
"O=C(CCCCCCC(=O)Nc1ccccc1)NO [vorinostat] + Cc1cc(N2CCOCC2)cc2[nH]c(-c3c(NC[C@@H](O)c4cccc(Cl)c4)cc[nH]c3=O)nc12 [BMS536924] (first compound 0.08 µM, partner dose 0.2 µM)",94.5,83.1,87.8,128,76,93.8,82.9,73.1,80.3,84.2
"Cn1c(Nc2ccc(C(F)(F)F)cc2)nc2cc(Oc3ccnc(-c4ncc(C(F)(F)F)[nH]4)c3)ccc21 + Cc1cc(N2CCOCC2)cc2[nH]c(-c3c(NC[C@@H](O)c4cccc(Cl)c4)cc[nH]c3=O)nc12 [BMS536924] (first compound 0.08 µM, partner dose 0.2 µM)",69.5,57.1,70.1,54.2,51,60.5,47,55.4,40.7,55.1
"Cn1c(Nc2ccc(C(F)(F)F)cc2)nc2cc(Oc3ccnc(-c4ncc(C(F)(F)F)[nH]4)c3)ccc21 + CO[C@@H]1[C@H](N(C)C(=O)c2ccccc2)C[C@H]2O[C@]1(C)n1c3ccccc3c3c4c(c5c6ccccc6n2c5c31)C(=O)NC4 [Midostaurin] (first compound 0.08 µM, partner dose 0.08 µM)",80.2,57.5,63.1,62.2,63.4,76.9,71.2,65.4,50.6,67.7
"OCc1c[nH]c2ccccc12 [Indole-3-carbinol] + C=CCn1c(=O)c2cnc(Nc3ccc(N4CCN(C)CC4)cc3)nc2n1-c1cccc(C(C)(C)O)n1 [MK1775] (first compound 0.8 µM, partner dose 0.02 µM)",103,102,109,104,85.8,105,84.3,69.2,81.1,81.3
"Clc1ccc(Nc2nnc(Cc3ccncc3)c3ccccc23)cc1 [vatalanib] + Cc1cc(N2CCOCC2)cc2[nH]c(-c3c(NC[C@@H](O)c4cccc(Cl)c4)cc[nH]c3=O)nc12 [BMS536924] (first compound 2 µM, partner dose 0.2 µM)",104,97.4,103,96.9,88.7,95.8,106,89.7,82,96.1
"OCc1c[nH]c2ccccc12 [Indole-3-carbinol] + COc1ccc2c(c1)CCC1C2CCC2(C)C(NCCCCCCN3C(=O)C=CC3=O)CCC12 [U73122] (first compound 0.8 µM, partner dose 0.4 µM)",96.7,105,76.2,88.5,103,106,84.2,94.4,106,96.6
"Clc1ccc(Nc2nnc(Cc3ccncc3)c3ccccc23)cc1 [vatalanib] + COc1ccc(-c2ccc3c(N4CCOCC4)nc(N4C[C@@H](C)O[C@@H](C)C4)nc3n2)cc1CO [KU0063794] (first compound 2 µM, partner dose 0.02 µM)",99.9,86.9,103,111,81.7,103,116,89.8,91.8,88.5
"Clc1ccc(Nc2nnc(Cc3ccncc3)c3ccccc23)cc1 [vatalanib] + CCCCCCCCCCCC1=C(O)C(=O)C=C(O)C1=O [Embelin] (first compound 2 µM, partner dose 1.2 µM)",96.9,90.8,94.3,104,82.1,103,113,81.2,82.9,88.8
"Clc1ccc(Nc2nnc(Cc3ccncc3)c3ccccc23)cc1 [vatalanib] + C[C@@H]1CCN(C(=O)CC#N)C[C@@H]1N(C)c1ncnc2[nH]ccc12 [CP690550] (first compound 2 µM, partner dose 1 µM)",97.4,93.4,83.8,108,101,97.5,99.1,90,93.4,92.3
